Hit rate of the full screen: of about 410,000 compounds, about 6,400 (1.6%) were called active. Inconclusive means that the source gave no clear call. Such entries were picked first, then a sample of the others. The call rests on the fitted dose curve; in most records, active means well fitted inhibition curve with a large enough effect; inconclusive means small, poorly fitted or top-dose-only effect; inactive means no such curve, though single readings can be large or run the other way. Potencies of inconclusive entries are left out as doubtful fits.
molecular target: Glucagon-like peptide 1 receptor (Homo sapiens) (UniProt P43220); experiment: qHTS of GLP-1 Receptor Inverse Agonists (Inhibition Mode); details: HEK293 GLP-1R CRE-luciferase, luminescence, 24 h, GLP-1R form is constitutively active; series mostly up to 38.3 µM; further: nearly all actives have a fitted effect of over 55% in size
UniProt P43220, sequence (P43220 whole entry, looked up): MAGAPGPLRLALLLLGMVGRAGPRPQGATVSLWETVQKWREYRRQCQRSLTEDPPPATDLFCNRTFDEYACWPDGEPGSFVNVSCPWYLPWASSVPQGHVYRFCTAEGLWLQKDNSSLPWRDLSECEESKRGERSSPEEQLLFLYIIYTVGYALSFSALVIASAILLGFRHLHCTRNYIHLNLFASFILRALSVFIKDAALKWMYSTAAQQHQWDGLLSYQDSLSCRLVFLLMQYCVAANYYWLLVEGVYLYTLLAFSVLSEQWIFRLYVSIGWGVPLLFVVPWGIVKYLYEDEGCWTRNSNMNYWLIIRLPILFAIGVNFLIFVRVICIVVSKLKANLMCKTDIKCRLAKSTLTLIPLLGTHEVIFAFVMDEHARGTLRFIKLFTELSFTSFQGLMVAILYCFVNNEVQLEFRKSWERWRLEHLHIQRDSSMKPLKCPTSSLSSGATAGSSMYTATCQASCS
In short: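 Seeding at 200 cells/uL, 12 h culture, 24 hr compound treatment, then luciferase reagent and a luminescence read; cells are HEK293 stably expressing a constitutively active GLP-1R plus cAMP-responsive luciferase.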
Potency means the concentration at half of the fitted maximal effect; tags describe the fitted curve by direction and shape.

Q: With CCC(=O)c1ccc(N2CCN(C(=O)COc3ccc(F)cc3)CC2)c(F)c1 as the compound, how does the Potency read?
A: Its Potency is inconclusive [inhibitor, partial curve].

Q: How did the Potency turn out when COC(=O)c1ccc(NC(=O)c2c(NCc3ccc(OC)c(OC)c3)sc3c2CCCC3)cc1 was run?
A: Its Potency is inconclusive [inhibitor, full curve, poor fit].

Q: How did the Potency turn out when COc1ccc(-c2cc3c(=O)n(CC(=O)NCc4ccc(F)cc4)ncn3n2)cc1 was run?
A: The Potency was inconclusive [inhibitor, partial curve, poor fit].

Q: Which Potency does the source give for O=C(COC(=O)CNC(=O)c1ccco1)Nc1ccccc1OC(F)F here?
A: The Potency was inconclusive [inhibitor, single point].

Q: Which Potency does the source give for COc1ccc(S(=O)(=O)Nc2cccc3c2O[C@H](CN(C)Cc2ccc(Oc4ccccc4)cc2)[C@@H](C)CN([C@H](C)CO)C3=O)cc1 here?
A: The Potency was inconclusive [inhibitor, single point].

Q: With CN(C)c1ccc(NC(=S)N(CCc2ccccc2)C2CC(=O)N(c3c(Cl)cccc3Cl)C2=O)cc1 (stereo not given) as the compound, how does the Potency read?
A: Its Potency is inconclusive [inhibitor, full curve, poor fit].

Q: With CCOc1ccccc1CNC(=O)CN1C(=O)C2CCCCN2c2ccc(C(=O)N(C)C)cc21 (stereo not given) as the compound, how does the Potency read?
A: Its Potency is “inactive”.

Q: For Cn1c(NCCO)nc2c1c(=O)n(Cc1cccc(Cl)c1)c(=O)n2C, which Potency is on record?
A: Its Potency is “inactive”.

Q: With Cc1ccc(S(=O)(=O)N2CCN(c3ccnc4cc(Cl)ccc34)CC2)cc1C as the compound, how does the Potency read?
A: Its Potency is inconclusive [inhibitor, single point].

Q: Which Potency does the source give for COc1ccc(C2=CC(=O)C[C@H](c3ccc(OC)c(OC)c3)C2)cc1 here?
A: Its Potency is “inactive”.

Q: With COc1ccc2[nH]cc(C(=O)CN3CCN(C4CCCCC4)CC3)c2c1 as the compound, how does the Potency read?
A: The Potency was inconclusive [inhibitor, full curve, poor fit].

Q: With Cc1ccc(Oc2ccc(C(=O)NC3CCSC3=O)cn2)cc1 (stereo not given) as the compound, how does the Potency read?
A: The Potency was inconclusive [inhibitor, full curve, poor fit].

Q: O=C1NC2=C(CCc3ccccc32)C(c2ccc(Br)cc2)N1 (stereo not given) was tested. Which Potency did it give?
A: Its Potency is “inactive”.

Q: For COc1ccc(CCNC(=O)c2cc3c(=O)[nH]c4ccc(C)cc4c3s2)cc1OC, which Potency is on record?
A: The Potency was “inactive”.

Q: Which Potency does the source give for CCN(c1cccc(C(F)(F)F)c1)S(=O)(=O)c1ccc2c(c1)CCN2C(C)=O here?
A: Its Potency is inconclusive [inhibitor, single point].

Q: Cc1cc(C)n(-c2ccc(C(=O)N3CCN(S(=O)(=O)c4ccc(Cl)cc4)CC3)cc2)n1 was tested. Which Potency did it give?
A: The Potency was inconclusive [inhibitor, single point].

Q: How did the Potency turn out when CCOC(=O)c1cnc(-n2nc(C)cc2C)nc1N(C)C was run?
A: The Potency was inconclusive [inhibitor, single point].

Q: With Cc1ccc(S(=O)(=O)NC(=O)c2ccc(Br)o2)cc1 as the compound, how does the Potency read?
A: The Potency was “inactive”.

Q: CC(=O)c1cccc(NC(=O)c2cc(-c3ccc4c(c3)OCCO4)on2)c1 was tested. Which Potency did it give?
A: Its Potency is inconclusive [inhibitor, single point].

Q: How did the Potency turn out when CCOCCn1c(CN2CCN(c3ccc(F)cc3)CC2)nc2c1c(=O)n(C)c(=O)n2C was run?
A: The Potency was inconclusive [inhibitor, full curve, poor fit].

Q: For COc1ccc(CCNC(=O)c2cc3cc(Cl)ccc3nc2N)cc1OC, which Potency is on record?
A: Its Potency is “inactive”.

Q: For CCCOc1ccc(C(=O)Nc2ccc(S(=O)(=O)N3CCN(C)CC3)cc2)cc1, which Potency is on record?
A: The Potency was inconclusive [inhibitor, single point].

Q: Which Potency does the source give for CCC(C)c1ccc(S(=O)(=O)N2CCN(C(C)C(=O)NC3CCCC3)CC2)cc1 (stereo not given) here?
A: Its Potency is inconclusive [inhibitor, partial curve, poor fit].

Q: With Clc1cc(Sc2ccc(Br)cc2)nnc1-c1ccccc1 as the compound, how does the Potency read?
A: Its Potency is inconclusive [inhibitor, partial curve, poor fit].

Q: C/C(=N\NC(=S)NC1CCCCC1)c1ccc(OC(F)F)cc1OC(F)F was tested. Which Potency did it give?
A: Its Potency is inconclusive [inhibitor, partial curve, poor fit].

Q: Which Potency does the source give for COC(=O)CCCn1cc(CN2CC(N3CCN(C4CCN(C)CC4)CC3)CS2(=O)=O)nn1 (stereo not given) here?
A: The Potency was “inactive”.

Q: CSc1ccc(CCNC(=O)c2ccc3c(c2)c(C)c(C)n3Cc2ccc(F)cc2)cc1 was tested. Which Potency did it give?
A: The Potency was “inactive”.

Q: Which Potency does the source give for CC1(C)COC(Cn2c3ccccc3c3ccccc32)O1 (stereo not given) here?
A: The Potency was inconclusive [inhibitor, partial curve, poor fit].

Q: How did the Potency turn out when CS(=O)(=O)N1CCC(N2CCN(Cc3ccc(F)cc3)C(=O)C2=O)CC1 was run?
A: Its Potency is “inactive”.

Q: CCCCSc1nnc2nc(C)cc(C)n12 was tested. Which Potency did it give?
A: The Potency was “inactive”.

Q: How did the Potency turn out when CCCCN(CCCC)Cc1ccc(C(=O)NNC(=O)Nc2ccccc2)o1 was run?
A: Its Potency is inconclusive [inhibitor, single point].

Q: CC1=C(C(=O)OCCOC(C)C)C(c2cccnc2)C2=C(CCCC2=O)N1 (stereo not given) was tested. Which Potency did it give?
A: Its Potency is “inactive”.

Q: Which Potency does the source give for CCC(NC(=O)NCc1ccccc1)(C(F)(F)F)C(F)(F)F here?
A: The Potency was inconclusive [inhibitor, single point].

Q: With C[C@H]1NC(=O)[C@]2(C)[C@@H](c3ccccc3)[C@H]3COc4ccccc4[C@@H]3N2C1=O as the compound, how does the Potency read?
A: Its Potency is “inactive”.

Q: Which Potency does the source give for O=S(=O)(/N=C(/Nc1cccc2ccccc12)c1ccccc1)c1ccc(Br)cc1 here?
A: The Potency was inconclusive [inhibitor, partial curve, poor fit].

Q: With CCOC(=O)N/N=C/c1ccccc1F as the compound, how does the Potency read?
A: Its Potency is “inactive”.

Q: Which Potency does the source give for CCn1c(-c2ccc(-c3ccccc3)cc2)c[nH]c1=S here?
A: The Potency was inconclusive [inhibitor, partial curve, poor fit].

Q: With CC(C)(C)NC(=O)N1CCN(S(=O)(=O)c2ccc3c(c2)CCC3)CC1 as the compound, how does the Potency read?
A: The Potency was inconclusive [inhibitor, single point].

Q: For COC(=O)[C@]12CCCCC=C1N(Cc1ccc3c(c1)OCO3)C(=O)[C@H](CC(=O)NCCc1ccccc1OC)C2, which Potency is on record?
A: The Potency was inconclusive [inhibitor, partial curve].

Q: Which Potency does the source give for Cc1ccc(Cl)cc1N(C)C(=O)c1cc2ccc3cccnc3c2[nH]1 here?
A: The Potency was inconclusive [inhibitor, single point].

Q: Which Potency does the source give for CCCCCCNc1c([N+](=O)[O-])c(=O)sc2ccccc12 here?
A: The Potency was inconclusive [inhibitor, partial curve, poor fit].

Q: With COc1ccc(C2(CNC(=O)c3ccccc3)CCCC2)cc1OC as the compound, how does the Potency read?
A: Its Potency is “inactive”.

Q: With CCN(CC)S(=O)(=O)c1ccc(C2=NOC3(C2)N(C)c2ccccc2C3(C)C)cc1 (stereo not given) as the compound, how does the Potency read?
A: The Potency was inconclusive [inhibitor, full curve].

Q: Which Potency does the source give for OC(c1ccc2c(c1)OCO2)c1ncc(-c2ccc(Cl)cc2)[nH]1 (stereo not given) here?
A: The Potency was inconclusive [inhibitor, single point].

Q: How did the Potency turn out when COc1ccccc1CNC(=O)C(Cc1ccccc1)NS(=O)(=O)c1ccc2c(c1)CCN2C(C)=O (stereo not given) was run?
A: The Potency was “inactive”.

Q: With Cc1ccc(C)c2sc(N3CCN(C(=O)c4ccc([N+](=O)[O-])o4)CC3)nc12 as the compound, how does the Potency read?
A: Its Potency is “inactive”.

Q: CS(=O)(=O)N(CC(=O)NC1CCCC1)c1ccc(Oc2ccccc2)cc1 was tested. Which Potency did it give?
A: Its Potency is inconclusive [inhibitor, partial curve, poor fit].

Q: Cc1cc(C(=O)CSc2nnc(C3COc4ccccc4O3)n2C)c(C)n1-c1ccc(F)cc1 (stereo not given) was tested. Which Potency did it give?
A: Its Potency is inconclusive [inhibitor, single point].

Q: Cc1nc2sc3c(c2c2nnc(SCC(=O)NCc4ccco4)n12)CCCC3 was tested. Which Potency did it give?
A: Its Potency is inconclusive [inhibitor, single point].

Q: For COc1ccc(CCNC(=O)Nc2nc(C(N)C3CCCCC3)cs2)cc1OC (stereo not given), which Potency is on record?
A: The Potency was inconclusive [inhibitor, single point].

Q: Which Potency does the source give for CCOC(=O)c1c(NC(C)=O)sc2c(OCC(O)CN(CC)CC)c(Br)ccc12 (stereo not given) here?
A: Its Potency is inconclusive [inhibitor, partial curve, poor fit].

Q: Cc1ncc(C[n+]2csc(CCOC(=O)C34CC5CC(CC(C5)C3)C4)c2C)c(N)n1 was tested. Which Potency did it give?
A: Its Potency is inconclusive [inhibitor, partial curve, poor fit].

Q: How did the Potency turn out when CNC(=O)COC(=O)c1ccc(-c2nc3ccccc3s2)s1 was run?
A: Its Potency is “inactive”.

Q: CCOc1cccc(CN2CCCC(N3CCN(c4cccc(Cl)c4)CC3)C2)c1O (stereo not given) was tested. Which Potency did it give?
A: The Potency was active: 10 µM.

Q: For Cc1cc(C(=O)COC(=O)c2ccc3c(c2)OCO3)c(C)n1Cc1cccs1, which Potency is on record?
A: The Potency was inconclusive [inhibitor, single point].

Q: For COc1ccccc1NS(=O)(=O)c1ccc2ccccc2c1, which Potency is on record?
A: Its Potency is inconclusive [inhibitor, partial curve, poor fit].

Q: With O=C1C=C(c2cccc(Br)c2)C[C@@H](c2ccc(F)cc2)C1 as the compound, how does the Potency read?
A: Its Potency is inconclusive [inhibitor, single point].

Q: How did the Potency turn out when NNC(=O)c1[nH]c2ccc(Br)cc2c1-c1ccccc1 was run?
A: Its Potency is inconclusive [inhibitor, single point].

Q: O=C(OCC1CCCO1)c1ccc2c(c1)N(Cc1ccccc1F)C(=O)c1ccccc1S2(=O)=O (stereo not given) was tested. Which Potency did it give?
A: Its Potency is “inactive”.

Q: CC1(C(=O)NCc2ccc(C(F)(F)F)cc2)CCN1Cc1cc2ccccc2o1 (stereo not given) was tested. Which Potency did it give?
A: The Potency was inconclusive [inhibitor, single point].

Q: COc1ccc(CSc2nnnn2-c2ccccc2)cc1 was tested. Which Potency did it give?
A: Its Potency is inconclusive [inhibitor, single point].

Q: CCOc1ccccc1NC(=O)CSc1nccn1Cc1ccc(F)cc1 was tested. Which Potency did it give?
A: Its Potency is “inactive”.

Q: Which Potency does the source give for Nc1ccccc1SCC(=O)Nc1ccc2c(c1)OCCO2 here?
A: Its Potency is inconclusive [inhibitor, partial curve, poor fit].

Q: Which Potency does the source give for COC(=O)N/N=C/c1cc(N=Nc2ccccc2Cl)ccc1O here?
A: The Potency was inconclusive [inhibitor, single point].

Q: COc1ccc(-c2[nH]ncc2/C=C(/C#N)C(=O)NC2CCCCCC2)cc1 was tested. Which Potency did it give?
A: Its Potency is inconclusive [inhibitor, partial curve, poor fit].

— PubChem BioAssay AID624417 (National Center for Advancing Translational Sciences (NCATS), 2012)
